Data published in the supplement of paper PMC3334620.
The full ranking holds about 33,000 sequences; the median of “E-score (-0.5 to 0.5)” is about -0.054, and the highest 2% start at about 0.39. The list shows a part of the results.

These sequences were tested against Ylr278c (UniProt Q05854) (assay: PBM E-score (8-mer binding enrichment) (E-score (-0.5 to 0.5)); higher = stronger / more preferred TF binding; most listed sequences are background and not binding sites). Details: protein concentration: 200 nM; construct: GST-DNA-binding domain.
Method: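 Universal 'all 10-mer' protein binding microarrays (Agilent AMADID 015681) probed with GST-tagged S. cerevisiae TFs (full-length or DBD) made by in vitro transcription/translation (PURExpress), about 100-200 nM. Bound TF was detected with fluorescent anti-GST. Each ungapped 8-mer (which stands for itself and its reverse complement) is scored by the PBM enrichment score (E-score), a modified Wilcoxon-Mann-Whitney statistic from -0.5 to +0.5, computed with the Universal PBM Analysis Suite. Scale: above 0.35 generally sequence-specific binding.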

Compared with ACTATTTA, CCAGTACC is lower in “PBM E-score” value: 0.022 for the first, -0.00838 for the second.

Compared with GAGTAGTA, CCTACCCG is higher in “PBM E-score” value: -0.0609 for the first, 0.00947 for the second.

First: CACATAGC
Second: AGCCGGGG
The “PBM E-score” value of the first is lower: 0.0361 for the first, 0.26 for the second.

Compared with AGCTATGC, CAATGGCA is higher in “PBM E-score” value: -0.387 for the first, 0.0325 for the second.

Going from CTACTTAC to CATCTGAC, the “PBM E-score” value rises from -0.199 to -0.0942.

First: AATTCTGT
Second: GCCGAACC
The “PBM E-score” value of the first is lower: -0.0602 for the first, 0.233 for the second.

Going from AACAATTA to GGTGGGAC, the “PBM E-score” value falls from 0.139 to -0.0365.

Compared with AACTATCC, ATTACACC is higher in “PBM E-score” value: 0.0243 for the first, 0.0531 for the second.

Going from CTACGCAC to CGTTACAC, the “PBM E-score” value rises from -0.126 to -0.00317.

Compared with GCGTTTCA, GGTGTCCA is higher in “PBM E-score” value: -0.0678 for the first, 0.00459 for the second.

Compared with ACTGAAAG, CCCTTGGA is lower in “PBM E-score” value: 0.0236 for the first, -0.101 for the second.

First: CCAGCGTA
Second: AGTCGCCG
The “PBM E-score” value of the first is lower: -0.0965 for the first, 0.207 for the second.

Going from AAGTTGTC to CAGCTCGA, the “PBM E-score” value falls from 0.0226 to -0.0471.

First: GAAATCAC
Second: AAAATTCT
The “PBM E-score” value of the first is higher: 0.189 for the first, 0.0373 for the second.

Compared with CTGTTCCC, CGGGGATC is higher in “PBM E-score” value: -0.0628 for the first, 0.408 for the second.

Going from AGTACACG to AGAAACGG, the “PBM E-score” value rises from 0.0148 to 0.14.

Going from GCTGATTA to GACGCGTA, the “PBM E-score” value falls from -0.0428 to -0.179.

Compared with GGTAACAA, CATACTAC is lower in “PBM E-score” value: 0.117 for the first, -0.0878 for the second.

Compared with TACCTGCA, CACTCGGA is higher in “PBM E-score” value: -0.0718 for the first, 0.329 for the second.

First: ACCCCGCT
Second: CCAGTTGA
The “PBM E-score” value of the first is higher: 0.282 for the first, -0.14 for the second.

First: GAGAAAGC
Second: GATAGATC
The “PBM E-score” value of the first is higher: 0.0149 for the first, -0.0349 for the second.

First: ACTCCTGA
Second: AACCACGT
The “PBM E-score” value of the first is higher: 0.0258 for the first, -0.315 for the second.

Going from AATCATAA to ATGTGGTC, the “PBM E-score” value falls from -0.2 to -0.222.

First: TAAGTGCA
Second: CCGCTACC
The “PBM E-score” value of the first is lower: -0.0655 for the first, 0.162 for the second.

First: AGACACTA
Second: ACCCAAAT
The “PBM E-score” value of the first is higher: 0.066 for the first, -0.0354 for the second.

Compared with GATAGGGA, GGATGCTA is higher in “PBM E-score” value: -0.132 for the first, -0.0596 for the second.

First: ATGTCCCA
Second: ATTCCAAG
The “PBM E-score” value of the first is lower: -0.0785 for the first, -0.077 for the second.

First: ATGCTCAC
Second: CCTTCGCC
The “PBM E-score” value of the first is lower: -0.0485 for the first, 0.0639 for the second.

Compared with ATTCGCGG, ACATCTCC is higher in “PBM E-score” value: 0.278 for the first, 0.322 for the second.

Compared with AAGTCTAA, CAATTTAG is higher in “PBM E-score” value: -0.133 for the first, -0.127 for the second.

Compared with CGGGTCGC, TAGGTAAA is lower in “PBM E-score” value: 0.118 for the first, -0.0912 for the second.

Going from TGTAGAAA to TCTCATAA, the “PBM E-score” value falls from -0.108 to -0.14.

First: AACCACTT
Second: AGCTTCCC
The “PBM E-score” value of the first is higher: -0.0892 for the first, -0.166 for the second.

Compared with TGCTACAA, AACCTGGA is lower in “PBM E-score” value: -0.0276 for the first, -0.0326 for the second.

Compared with CCCCTCAG, CATACAAC is lower in “PBM E-score” value: -0.124 for the first, -0.148 for the second.

First: CCGGATTC
Second: CTCCTACA
The “PBM E-score” value of the first is higher: 0.405 for the first, -0.0245 for the second.

Compared with CTTAATGC, AAACAATT is higher in “PBM E-score” value: -0.0845 for the first, 0.0357 for the second.

Compared with AAACGGTG, TACGCCCA is higher in “PBM E-score” value: -0.15 for the first, -0.0405 for the second.

Going from CGGTATAG to CATCCTTC, the “PBM E-score” value falls from 0.166 to -0.0925.

Compared with AACAATAT, AGGGGAGC is lower in “PBM E-score” value: 0.138 for the first, -0.117 for the second.

Going from CACCGGAG to ACAAACCC, the “PBM E-score” value falls from 0.443 to 0.0756.

First: GGACGGCC
Second: CTAATTAA
The “PBM E-score” value of the first is higher: 0.14 for the first, -0.234 for the second.

First: GAACTTCA
Second: GGTGTCAA
The “PBM E-score” value of the first is lower: -0.151 for the first, -0.0561 for the second.

First: AGTGCCGA
Second: GAGATAGC
The “PBM E-score” value of the first is higher: 0.231 for the first, 0.0195 for the second.

First: CAGAGTTC
Second: CCCGCTAG
The “PBM E-score” value of the first is lower: -0.0857 for the first, 0.183 for the second.

First: GCTAAAAC
Second: CGCCTCAC
The “PBM E-score” value of the first is lower: 0.056 for the first, 0.122 for the second.

First: CTAGCCTA
Second: CCTGACGA
The “PBM E-score” value of the first is higher: -0.0988 for the first, -0.245 for the second.

Compared with CGCCCTTC, AGGACGGG is lower in “PBM E-score” value: 0.0938 for the first, 0.00745 for the second.

First: TAGCGTAA
Second: CTCTGCGC
The “PBM E-score” value of the first is lower: -0.0517 for the first, -0.0258 for the second.

Going from AGTATTGC to GGTACAAC, the “PBM E-score” value rises from -0.103 to -0.0892.

Going from GAATTTCA to CTCATTGC, the “PBM E-score” value falls from 0.0189 to -0.0622.

Compared with CCAGGCAC, CCCTCTCG is lower in “PBM E-score” value: -0.0214 for the first, -0.157 for the second.

Going from CAACCAAC to TTCGGAAA, the “PBM E-score” value rises from -0.219 to 0.419.

Going from ATTAGATA to AGCCTCCA, the “PBM E-score” value falls from -0.169 to -0.172.

Going from TGAGGGCA to GGGTCAAC, the “PBM E-score” value rises from -0.149 to 0.0699.

Compared with ACATCTAC, GGGTTCGA is lower in “PBM E-score” value: -0.0382 for the first, -0.0929 for the second.

Compared with GCAGTTAA, TCCTACCA is lower in “PBM E-score” value: -0.067 for the first, -0.0857 for the second.

First: ATTCCTTG
Second: GAAGGAAA
The “PBM E-score” value of the first is higher: -0.136 for the first, -0.227 for the second.

First: AATATCCC
Second: ATTAGGGC
The “PBM E-score” value of the first is higher: 0.211 for the first, -0.125 for the second.

Compared with CAAATGCG, ATTGAACC is lower in “PBM E-score” value: 0.068 for the first, -0.0437 for the second.

Compared with AGCCGCAC, AACGTCAG is lower in “PBM E-score” value: -0.0107 for the first, -0.23 for the second.

First: CATCGTTC
Second: AACGCTGT
The “PBM E-score” value of the first is higher: -0.0178 for the first, -0.0769 for the second.

First: GGAGCGAC
Second: CGTTGGGC
The “PBM E-score” value of the first is higher: 0.182 for the first, -0.0878 for the second.

First: GAACTCTA
Second: AGGCTGAT
The “PBM E-score” value of the first is higher: -0.0765 for the first, -0.308 for the second.

Compared with CCAAAAAA, GCTCCCCC is lower in “PBM E-score” value: 0.0139 for the first, -0.133 for the second.

Compared with CATACGTA, GTGATCTA is lower in “PBM E-score” value: -0.0591 for the first, -0.0775 for the second.

Compared with ACCACATA, ACGCATCG is higher in “PBM E-score” value: -0.169 for the first, 0.0518 for the second.

Compared with GAACGTAC, ATAACTCA is lower in “PBM E-score” value: -0.143 for the first, -0.148 for the second.

Going from CTCTTTAA to ACTCTTGA, the “PBM E-score” value rises from -0.217 to -0.211.

First: GGGCATAA
Second: TCAATTAA
The “PBM E-score” value of the first is higher: -0.101 for the first, -0.107 for the second.

First: AGGGTAAG
Second: TAAACGCA
The “PBM E-score” value of the first is higher: 0.0302 for the first, -0.0432 for the second.

Going from AGATGAAT to TCCCACGA, the “PBM E-score” value rises from -0.194 to -0.00907.

First: CCGGACTA
Second: GCTAGGTA
The “PBM E-score” value of the first is higher: 0.458 for the first, -0.213 for the second.

Compared with AAAAACGT, AGGCTTAC is higher in “PBM E-score” value: -0.107 for the first, -0.078 for the second.

Going from CGGCATAC to CACACGAC, the “PBM E-score” value falls from 0.261 to -0.0745.

First: AAGTTGTG
Second: ATTACACG
The “PBM E-score” value of the first is lower: -0.0813 for the first, 0.00458 for the second.

Compared with AACAAATA, CACTACTG is lower in “PBM E-score” value: 0.0539 for the first, -0.212 for the second.

Compared with GAAGGCCA, AATAACAA is lower in “PBM E-score” value: -0.0521 for the first, -0.0732 for the second.

Compared with CCAAGCCA, AAGAAAAG is higher in “PBM E-score” value: -0.206 for the first, -0.0374 for the second.

Going from TCGTACAA to GGGGCGTA, the “PBM E-score” value rises from -0.267 to 0.0266.

Compared with CACTACCG, CCGGCTGA is higher in “PBM E-score” value: 0.00134 for the first, 0.283 for the second.

First: ACTTTGTC
Second: CCAGCTCA
The “PBM E-score” value of the first is higher: -0.0588 for the first, -0.186 for the second.

First: CCCAGATA
Second: ATTGACCG
The “PBM E-score” value of the first is lower: -0.14 for the first, 0.212 for the second.

First: ATCTTATA
Second: ACCATTCA
The “PBM E-score” value of the first is higher: -0.157 for the first, -0.181 for the second.

Compared with CAACGCGG, ACAGCCGC is lower in “PBM E-score” value: 0.246 for the first, -0.0158 for the second.

First: TCGACACA
Second: ATAGAGTA
The “PBM E-score” value of the first is higher: -0.1 for the first, -0.193 for the second.
